{"source": "PubChem BioAssay AID651820", "about": "(National Center for Advancing Translational Sciences (NCATS), 2012)", "note": "Screen size: about 340,000 compounds; about 12,000 (3.5%) were called active. The inconclusive results got no clear call from the source; some entries with a clear call stand among them for comparison. Calls follow the shape of the dose curve; as a rule, active = well fitted inhibition curve with a large enough effect; inconclusive = small, poorly fitted or top-dose-only effect, or another doubt; inactive = no such curve, though single readings can be large or run the other way. No potency is given beside an inconclusive call; the fits are too rough. % is scaled to controls: 0 for no effect and ±100 for the full control effect; potency is read from the fitted curve at half-maximal effect; tags tell the direction and shape of the fitted curve."}
{"test": "qHTS Assay for Inhibitors of Hepatitis C Virus (HCV)", "settings": "Huh7.5.1 HCVcc-Cre (HCVcc is cell-culture hepatitis C virus) infection, luciferase reporter, 44 h; activity change, negative = inhibition: at 41.8 µM (top of the series) unless noted", "summary_of_the_method": "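Compounds are dispensed onto cells plated 4 h earlier at 1,000 per well, with HCVcc-Cre virus (about 0.5 moi) added next. Following 44 h of culture, luminescent signal is measured for 15 sec after 15 min with substrate at room temperature.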"}
{"smiles": "COC(C)(C)CCCC(C)C/C=C/C(C)=C/C(=O)OC(C)C", "note": "(configuration not stated)", "Potency": "inactive"}
{"smiles": "Cn1c(=O)cc(SCC(=O)NCCN2CCN(c3ccccc3F)CC2)c2cc(Cl)ccc21", "Potency": "inconclusive [inhibitor, single point]"}
{"smiles": "CC(C)(C)c1cc(C(=O)NNc2cc(C(F)(F)F)ccc2Cl)n(Cc2ccccc2)n1", "Potency": "inconclusive [inhibitor, partial curve]"}
{"smiles": "N#Cc1c(N2CCOCC2)nsc1-c1ccccc1", "Potency": "inconclusive [inhibitor, single point]"}
{"smiles": "Cc1cccc(N2CCN(C(=O)c3cccc(S(=O)(=O)N4CCc5ccccc5C4)c3)CC2C)c1", "note": "(configuration not stated)", "Potency": "active: 7.08 µM"}
{"smiles": "O=C(Nc1ncn[nH]1)c1ccc(Cl)c(S(=O)(=O)N2CCCCCC2)c1", "Potency": "inactive"}
{"smiles": "Cc1cccc2nc(CSc3ccc(Cl)cc3)cn12", "Potency": "inactive"}
{"smiles": "CNS(=O)(=O)c1ccc(CCC(=O)N2CCN(c3ccccc3OC)CC2)cc1", "Potency": "inconclusive [inhibitor, partial curve]"}
{"smiles": "CC(n1cnnn1)C12CC3CC(CC(C3)C1)C2", "note": "(configuration not stated)", "Potency": "inactive"}
{"smiles": "OC(CCc1ccncc1)c1ccccc1", "note": "(configuration not stated)", "Potency": "inconclusive [inhibitor, single point]"}
{"smiles": "O=C(Nc1cccc(S(=O)(=O)N2CCOCC2)c1)[C@@H]1CCCN1S(=O)(=O)c1ccc(Cl)cc1", "Potency": "inconclusive [inhibitor, single point]"}
{"smiles": "CCOC(=O)c1c(-c2ccccc2)n(C)c2ccc(O)cc12", "Potency": "inconclusive [inhibitor, partial curve]"}
{"smiles": "COC(CNC(=O)c1ccc2c3c(onc13)-c1ccccc1C2=O)OC", "Potency": "inconclusive [inhibitor, single point]"}
{"smiles": "CCOc1ccc(CCNC(=O)Cc2nn[nH]n2)cc1OCC", "Potency": "inactive"}
{"smiles": "Cc1ccccc1CN(C)C(C)C(=O)NCc1ccccc1", "note": "(configuration not stated)", "Potency": "inconclusive [inhibitor, single point]"}
{"smiles": "NC(=O)Cc1ncc(C(F)(F)F)cc1Cl", "Potency": "inactive"}
{"smiles": "Cc1nn(CC(=O)Nc2ccc3c(c2)OCO3)c(C)c1Cl", "Potency": "inactive"}
{"smiles": "Fc1ccc(Nc2nc(NCc3ccco3)c3ccccc3n2)cc1", "Potency": "active: 10 µM"}
{"smiles": "CCOC(=O)C(=O)N=Nc1c(O)n(C)c2ccccc12", "Potency": "inactive"}
{"smiles": "CCOC(=O)Nc1ccc(S(=O)(=O)NC2CCCCC2)cc1", "Potency": "inconclusive [inhibitor, full curve, poor fit]"}
{"smiles": "Cc1cc(-c2csc(NC(=O)c3ccc(=O)[nH]c3)n2)c(C)n1Cc1ccccc1", "Potency": "inconclusive [inhibitor, partial curve]"}
{"smiles": "O=C(Nc1ccc(N2CCOCC2)cc1)c1cc2c(s1)CCCCC2", "Potency": "active: 11.2 µM"}
{"smiles": "COc1ccc(C2c3[nH]c4ccccc4c3CCN2C(=O)c2cn3ccccc3n2)c(F)c1", "note": "(configuration not stated)", "Potency": "inactive"}
{"smiles": "Nc1c(-c2ccc(Cl)cc2)cnn1-c1cccc([N+](=O)[O-])c1", "Potency": "inactive"}
{"smiles": "COC(=O)c1sccc1NC(=O)c1cc2c(s1)CCCC2", "Potency": "inactive"}
{"smiles": "COc1ccc(/C=C/C(=O)Nc2sc3c(c2C(=O)NCc2cccnc2)CCCC3)cc1", "Potency": "inconclusive [inhibitor, single point]"}
{"smiles": "CCOc1ccc(NC(=S)N(Cc2ccc(Cl)cc2)Cc2ccco2)cc1", "Potency": "inconclusive [inhibitor, partial curve, poor fit]"}
{"smiles": "Cc1cc(C)c(N=C2CCCN2Cc2ccccc2)c(C#N)c1", "Potency": "inconclusive [inhibitor, single point]"}
{"smiles": "COc1ccccc1C(=O)Nc1ccncc1", "Potency": "inactive"}
{"smiles": "c1cc(OCCCN2CCCCC2)ccc1CN1CCCCC1", "Potency": "inconclusive [inhibitor, full curve, poor fit]"}
{"smiles": "COc1ccc2c(c1)c1ncn(CCN3CCCC3)c(=O)c1n2C", "Potency": "inconclusive [inhibitor, single point]"}
{"smiles": "COc1ccccc1CNC(=O)C(=O)NCC1OCCCN1S(=O)(=O)c1ccc(F)cc1C", "note": "(configuration not stated)", "Potency": "inconclusive [inhibitor, single point]"}
{"smiles": "Cc1ccc2c(c1)C(=O)C(=O)N2Cc1ccc(Cl)cc1", "Potency": "inconclusive [inhibitor, partial curve]"}
{"smiles": "COc1ccc(/C=C/C(=O)NC(=S)NNC(=O)c2ccco2)cc1", "Potency": "inconclusive [inhibitor, partial curve]"}
{"smiles": "CCOC(=O)Cn1c(=NC(=O)c2nc3ccccc3s2)sc2cc(S(N)(=O)=O)ccc21", "Potency": "inconclusive [inhibitor, partial curve]"}
{"smiles": "CC(CN1CCNCC1)(NS(=O)(=O)c1ccccc1)c1ccccc1", "note": "(configuration not stated)", "Potency": "inconclusive [inhibitor, single point]"}
{"smiles": "COc1cc(OC)c(C(=O)NCc2ccco2)cc1OC", "Potency": "inactive"}
{"smiles": "N#Cc1c2n(c3c(=O)n(Cc4ccccc4Cl)cnc13)CCCCC2", "Potency": "inconclusive [inhibitor, single point]"}
{"smiles": "N=C1/C(=C\\c2coc3ccccc3c2=O)C(=O)N=C2SC(c3ccncc3)=NN12", "Potency": "inconclusive [inhibitor, single point]"}
{"smiles": "Cc1cc(N2CCN(Cc3ccccc3)CC2)n2nc(C)c(-c3ccccc3)c2n1", "Potency": "inconclusive [inhibitor, full curve]"}
{"smiles": "Cc1ccc(NC(=O)C(C)c2cccc(C(=O)c3ccccc3)c2)cc1", "note": "(configuration not stated)", "Potency": "inconclusive [inhibitor, single point]"}
{"smiles": "Cc1ccc(S(=O)(=O)N2CCOCC2)cc1NC(=O)Cn1ccsc1=N", "Potency": "inactive"}
{"smiles": "COc1ccc(C(=O)CN2C(=O)C(C)(C)Oc3ccc(C(=O)N4CCCCCC4)cc32)cc1", "Potency": "inactive"}
{"smiles": "COc1cc(CNCc2cc(OC)c(OC)c(OC)c2)cc(OC)c1", "Potency": "inconclusive [inhibitor, single point]"}
{"smiles": "O=C(N/N=C/c1cc([N+](=O)[O-])ccc1N1CCCCCC1)c1ccccn1", "Potency": "inconclusive [inhibitor, full curve, poor fit]"}
{"smiles": "CC(C)c1cc(CNC(=O)c2cc(COc3cncc(Cl)c3)on2)on1", "Potency": "inactive"}
{"smiles": "O=C(O)C(=O)Cc1c[nH]c2ccccc12", "activity change, negative = inhibition": "inactive: 0.181% [at 8.37 µM]"}
